Experimental data as given in the BET-seq Pho4 binding data (Le et al. 2018).
The list shows a part of the results. These are noisy estimates, calculated here from bound and input reads.

target: T1, Pho4 (S. cerevisiae) (UniProt P07270); experiment: relative binding free energy (BET-seq); higher = weaker binding; settings: reference: library average
T1 sequence: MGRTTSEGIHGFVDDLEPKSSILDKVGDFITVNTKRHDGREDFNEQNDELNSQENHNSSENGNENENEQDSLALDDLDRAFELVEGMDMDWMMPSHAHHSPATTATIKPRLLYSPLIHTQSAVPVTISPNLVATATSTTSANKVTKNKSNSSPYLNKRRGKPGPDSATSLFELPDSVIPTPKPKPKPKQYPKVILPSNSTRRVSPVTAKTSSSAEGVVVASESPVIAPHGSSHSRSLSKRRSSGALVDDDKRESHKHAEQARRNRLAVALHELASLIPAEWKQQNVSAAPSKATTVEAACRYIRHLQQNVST

Sequence | relative binding free energy [kcal/mol]
TATTTCACGTGGATAG | 0.22
TGATTCACGTGTGCTA | 0.33
TGTGTCACGTGACGAG | 0.24
GAGGGCACGTGTTAAG | 0.04
CTGGGCACGTGCGCGG | -0.31
CAGCGCACGTGTGGGA | -0.01
AAGGGCACGTGCCGTG | -0.11
TCAGTCACGTGACTTG | 0.42
TTGGGCACGTGATGCC | -0.06
GGTGACACGTGAGTAT | 0.35
AAGATCACGTGTGGAT | 0.27
AGTGTCACGTGTTTAG | 0.09
TTTACCACGTGTAGGG | 0.11
TTCTTCACGTGGTGAA | 0.12
TGTGTCACGTGTGCTT | 0.1
TAAATCACGTGAGGGC | 0.46
ATTGACACGTGCGGGT | -0.06
AATTGCACGTGCGGTA | -0.01
ATAGGCACGTGTCGGG | -0.17
GTAGTCACGTGGATCT | 0.21
AAGTCCACGTGGGTAG | -0.11
ACGTTCACGTGGGGCT | 0.2
TCGGTCACGTGTAGGC | 0.15
AGGTACACGTGAGGCA | 0.26
GAAGTCACGTGTATGG | 0.27
TGTACCACGTGGGTTT | -0.1

Sequence | relative binding free energy [kcal/mol]
TGCAACACGTGTTGGT | -0.04
GTAAGCACGTGGGTAG | -0.21
TTTGTCACGTGCGTGC | 0.06
ATTTTCACGTGTTACT | 0.17
CTTGTCACGTGGGGAA | 0.05
GCGGTCACGTGGGCGT | 0.03
TTAGACACGTGTAAAG | 0.26
TATGACACGTGTTCGT | -0.06
CTTGGCACGTGCGGGT | -0.21
AGTTACACGTGACTGG | 0.16
GATTACACGTGGAGTT | 0.16
GGAAGCACGTGATGGG | 0.1
TGATTCACGTGGCGTT | 0.35
GGGCGCACGTGGTAAG | -0.06
AGGAACACGTGGGGAT | -0.09
AGGACCACGTGGTGGT | -0.15
AGTACCACGTGATTGG | 0.22
GTGGGCACGTGTCTTA | -0.17
ATATTCACGTGGTGCT | 0.22
TCTTTCACGTGGTAGT | 0.18
TGTAGCACGTGACGAG | 0.16
TAAAACACGTGTGTGT | 0.05
AGGAGCACGTGGTAGG | -0.16
GAGTACACGTGTTTGT | 0.11
GTTGACACGTGACGTG | 0.11
ATTAGCACGTGTAAAG | 0.11

Sequence | relative binding free energy [kcal/mol]
AGAGACACGTGTTGTG | -0.02
GTGTTCACGTGAACGT | 0.22
ATTGGCACGTGCTTCG | -0.13
AGTATCACGTGATGTT | 0.27
GCTGGCACGTGAATAT | 0.31
CGTATCACGTGGGCAT | 0.08
TAAGACACGTGTGGGT | 0.04
ATGGCCACGTGTTTGG | -0.06
GTAGGCACGTGATGAT | 0.1
GTGGGCACGTGAATAT | 0.17
TAGGTCACGTGGAAAG | 0.13
AGGATCACGTGCATTT | 0.37
ATGGCCACGTGGCGGT | -0.21
GAGGTCACGTGCCGGG | 0.15
TTGGACACGTGTGGCT | 0.13
TACGTCACGTGGCGGT | -0.03
TATGGCACGTGTCTTT | 0.05
GGTATCACGTGATGGT | 0.31
ATAGGCACGTGGGGGT | -0.3
AGGGACACGTGATGCT | 0.12
TTTGGCACGTGTAATC | 0.12
ATGCTCACGTGTGATG | 0.23
GTAAACACGTGTGTAG | 0.1
TCGTTCACGTGGTATT | 0.11
AGGGACACGTGCGTGG | -0.04
TTCAGCACGTGCGGGG | -0.21

Sequence | relative binding free energy [kcal/mol]
TGTGTCACGTGTGGGA | 0.14
AATTTCACGTGTTATC | 0.33
AGGTGCACGTGGAAGC | 0.03
GTGTGCACGTGTCGGG | 0.03
TGAAGCACGTGTGCGG | -0.1
ATGCTCACGTGTCTGT | 0.16
TCCGGCACGTGTGAGT | 0.1
GTGAGCACGTGGACGT | -0.1
ACGGGCACGTGGGCAG | -0.32
GTGGACACGTGGTGAC | -0.06
TGATTCACGTGTGGCT | 0.34
TTAGGCACGTGTCATG | -0.2
AATTACACGTGTAGGG | 0.16
TGGTCCACGTGGGCTA | -0.08
TGACGCACGTGGGTTG | -0.3
GTGTACACGTGATGTG | 0.16
AATGGCACGTGGGATG | -0.2
GTTATCACGTGGTACA | 0.18
TCATGCACGTGTCTGT | 0.03
TGGGGCACGTGCGAAA | -0.15
GAATGCACGTGTTTGT | 0
TTTAACACGTGTGTAC | 0.04
TGTTGCACGTGCGTGC | -0.03
GTCAGCACGTGGGGTT | -0.21
TGGTGCACGTGGAAAT | 0.02
AGGGGCACGTGCAAGG | -0.1

Sequence | relative binding free energy [kcal/mol]
TGTATCACGTGGGGTT | 0.09
GTGTGCACGTGGTTCA | -0.02
TCGGTCACGTGGGCGG | -0.06
TTCTCCACGTGTGGGG | 0
AGCTGCACGTGAGGTA | 0.19
TTTTTCACGTGTCTCT | 0.25
GGAATCACGTGTCTTT | 0.28
GGATTCACGTGTGGAT | 0.24
TTGCTCACGTGATTTA | 0.41
GTTAGCACGTGGTCAT | -0.01
AGGTGCACGTGGCTCG | 0.03
TATTCCACGTGGGTGG | -0.22
ATAAGCACGTGTATGT | -0.07
TTTTTCACGTGCTCGG | 0.27
AAATGCACGTGCTGTG | -0.15
GCTTGCACGTGTAGAG | 0.12
ATTTTCACGTGGGCGG | 0.29
TTTGTCACGTGTGCAG | -0.02
AAGTACACGTGGGGGT | -0.13
AAGTTCACGTGGCGGT | 0.37
CTTGCCACGTGGGTTT | -0.12
GGTGTCACGTGTGAGA | 0.26
CATGTCACGTGTTTGG | 0.07
ATGTTCACGTGACATG | 0.11
TGGGACACGTGAGGGA | 0.25
TAGATCACGTGGAGAG | 0.18

Sequence | relative binding free energy [kcal/mol]
AGTTACACGTGGGTGA | 0
CAGTTCACGTGTGGTA | 0.31
ATAGGCACGTGATGCT | 0.03
GTCATCACGTGGTATG | 0.18
TGTTTCACGTGGTGGA | 0.19
GGTGTCACGTGTTTGC | 0.15
GGGCGCACGTGCGAGT | -0.19
GTCTCCACGTGTGGGG | 0.21
GTTCGCACGTGGGGTA | -0.12
AGTGTCACGTGTTGCA | -0.12
TGAGACACGTGTTAAG | 0.13
AGCGTCACGTGGCGCG | 0.11
GCAAGCACGTGAGGTG | 0.11
GTAGTCACGTGGGATG | 0.01
ATGGGCACGTGAGCGC | 0.08
TTCTTCACGTGTTCGG | 0.37
TATGACACGTGTTTGG | 0.06
CTGTACACGTGGGTAA | -0.14
GTAGGCACGTGGGCTA | -0.21
TGAGTCACGTGCTAGG | -0.02
TCGAGCACGTGATGGT | 0.14
TAGCGCACGTGATTTG | 0.04
TGATGCACGTGTAGCT | 0
CAGGGCACGTGGGTCT | -0.24
GTTTACACGTGAGGGC | 0.32
CTGTGCACGTGGTTGG | -0.11

Sequence | relative binding free energy [kcal/mol]
TGGGGCACGTGGAAGA | -0.09
AGAGTCACGTGTATGT | 0.2
GGGGTCACGTGTGAGC | 0.18
AGGTGCACGTGTAGAT | 0.18
TGAGGCACGTGGACAG | -0.13
TTAGACACGTGTATGC | 0
ATAGGCACGTGTGTAT | -0.1
TGGGGCACGTGGCATG | -0.2
CGTAACACGTGGGATG | -0.03
GGGACCACGTGGTAGT | -0.09
TTTGGCACGTGGACAG | -0.06
GTGCGCACGTGTGGAA | 0.01
TTCTACACGTGGTAGT | -0.06
ATGACCACGTGTATGG | 0.01
TACTTCACGTGTTTTC | 0.32
GTGGCCACGTGCCGGT | -0.05
GGCAGCACGTGTAGGT | -0.08
GAGGCCACGTGAAAGG | 0.41
GCTAGCACGTGTGGTT | -0.04
TTGGACACGTGGGGTT | -0.08
TACTTCACGTGTTGTA | 0.39
ACTCACACGTGTGGTT | 0.24
AATGTCACGTGGTTGT | -0.03
AGTAGCACGTGTATGA | 0
ACTTTCACGTGTGTAT | 0.31
TCCGGCACGTGGTGGC | -0.09

Sequence | relative binding free energy [kcal/mol]
GGATTCACGTGTTAGC | 0.3
GGAAGCACGTGTGAGG | -0.18
GTCGGCACGTGAGGGA | 0.15
TATATCACGTGTCATG | 0.2
TTTTTCACGTGTTTGT | 0.31
TTATGCACGTGTGGCA | -0.02
TCGGGCACGTGTTGTG | -0.13
TTTCACACGTGGGGGT | -0.11
GGTAGCACGTGATTTT | 0.09
GATGGCACGTGGCGCG | -0.11
GTTTGCACGTGTACTT | 0.14
GAGCACACGTGGGTTT | 0.04
TTTGGCACGTGAGAGA | 0.18
TTACACACGTGAGTTT | 0.3
CGAGTCACGTGGAGTT | 0.11
ATGTTCACGTGGAGTA | 0.24
TGTGGCACGTGGGCTG | -0.2
GGACGCACGTGCTGGG | -0.05
TTGGTCACGTGTTAAG | 0.18
AGGGACACGTGCTGTT | -0.02
AAGAACACGTGGAGTG | -0.05
TAGGGCACGTGAGGAG | 0.15
GTGGTCACGTGTTTAC | 0.14
ATATACACGTGTTATT | 0.02
ATCTTCACGTGCTGGT | 0.17
GGAGGCACGTGTGATG | 0.03

Sequence | relative binding free energy [kcal/mol]
GGCGACACGTGAGGTT | 0.22
GTGGGCACGTGAGGCT | 0.17
TAATTCACGTGAGGAT | 0.51
CATTTCACGTGGGTAA | 0.08
AGGTTCACGTGAAGTG | 0.36
TTGAACACGTGGAGGC | 0.04
GTTGCCACGTGGAATG | 0.03
GGCGGCACGTGTCGGG | -0.05
GCGTTCACGTGGTCGG | 0.25
AGTACCACGTGGGATT | -0.06
AGGGTCACGTGGATGT | 0.07
TATCGCACGTGCGGTG | -0.11
GCGTACACGTGTGGGA | 0.06
GGGGGCACGTGAATGC | 0.25
GTGGTCACGTGTCGCT | 0.01
GGAGACACGTGTAATG | 0.12
TTATGCACGTGGCATG | 0
AGGGTCACGTGGGCCA | -0.03
TTGATCACGTGCGGGA | -0.07
GGTTGCACGTGCATTA | 0.02
GATGACACGTGTTAGT | 0.08
GTGGCCACGTGGTAGC | 0.02
